Measured values published in PubChem BioAssay AID1508623 (National Center for Advancing Translational Sciences (NCATS), 2021).
Hit rate of the full screen: of about 48,000 compounds, about 450 (0.94%) were called active. Inconclusive results (about 19%) are left out. The call rests on the fitted dose curve; in most records, active means well fitted inhibition curve with a large enough effect; inconclusive means small, poorly fitted or top-dose-only effect; inactive means no such curve, though single readings can be large or run the other way. This is one part of the list.

Assay: Primary qHTS for Identification of Small Molecule Inhibitors of Huntingtin Promoter Activity; further: nearly all actives have a fitted effect of over 50% in size
Settings: HEK293 HTT promoter firefly luciferase reporter (activity 0% = vehicle and -100% = no light), 24 h; series mostly up to 57.5 µM; activity change, negative = inhibition: at the top concentration
How it was run: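 Firefly luciferase signal from promoter-reporter HEK293 cells was scaled between vehicle (0%) and zero RLU (-100%). Compounds were tested at final concentrations of up to 57.5 uM over 24 h at 37 degrees C. PTC124 at 50 uM final served as control inhibitor.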

Activity change, negative = inhibition, inactive:
O=C(NCc1cccc(Cl)c1)C(=O)Nc1ccc2nc3n(c(=O)c2c1)CCCCC3 0.752%
CCCCN1CCCc2cc(CN(CCCN3CCOCC3)C(=O)Nc3ccc(OCC)cc3)ccc21 5.81%
COc1ccc(C)cc1Nc1c2c(nc3nc(-c4cccs4)nn13)CCCC2 0%
COc1cc(Nc2nc3ccccc3c3nnc(C)n23)cc(OC)c1 -14.8%
CCN(CC)S(=O)(=O)c1ccc2c(c1)N(CC(=O)N1CCN(c3ccccc3F)CC1)C(=O)CO2 -12.1%
Cc1ccc(NC(=O)N2CCc3cc(S(=O)(=O)N4CCC(C)CC4)ccc32)cc1C -2.39%
CCOC(=O)c1ccc(Nc2ncnc3c2cnn3-c2cccc(Cl)c2)cc1 -1.29%
Cc1ccccc1NS(=O)(=O)c1nnc(NC(=O)c2ccccc2C)s1 -2.88%
CCOC(=O)c1ccc(NC(=O)c2ncn(-c3ccccc3)n2)cc1 10.1%
COc1ccc(N2CCN(C(=O)CCn3c(=O)c4cccn4c4cccnc43)CC2)cc1 -10.4%
CCN(CC)c1ccc(C(=O)N2CCC(c3c[nH]c4ccccc34)(c3c[nH]c4ccccc34)CC2)cc1 -5.88%
O=C(NC1CCN(Cc2ccccc2)CC1)c1ccc(Cn2c(=O)c3ccccc3n(Cc3ccccc3)c2=O)cc1 -21.4%
Cc1ccc(-c2nc(-c3cc4cccc(OCc5cccc(C)c5)c4oc3=O)no2)cc1 -1.63%
Cc1ccc(CNC(=O)c2ccc(-n3cnc4cccnc43)cc2)cc1 -17.7%
Cc1ccc(NC(=O)/C(C#N)=C/c2cc(C)n(-c3ccc(F)cc3)c2C)cc1C -8.92%
CCc1ccc(NC(=O)Cn2c3ncccc3c(=O)n2-c2ccc(C)c(C)c2)cc1 -8.89%
Cc1cccc(NC(=O)CSc2nc3c([nH]c4ccccc43)c(=O)n2C)c1C -7.24%
N#C/C(=C\c1ccc(Cl)cc1)c1nc2ccccc2[nH]1 17.8%
Brc1ccccc1-c1ccccc1 10.1% [at 116 µM]
CC(NC(=O)Nc1ccccc1C(F)(F)F)c1c(-n2cccc2)sc2c1CCCC2 (configuration not stated) -29.3%
COc1ccccc1CNC(=O)Cn1ncc2c3ccccc3n(Cc3ccccc3C)c2c1=O 6.19%
CCOC(=O)c1ccc(NS(=O)(=O)c2ccc(Br)s2)cc1 -14.6%
COc1ccccc1NC(=O)CSc1oc(-c2cccs2)nc1S(=O)(=O)c1ccc(Br)cc1 -32%
CN(C(=O)CSc1nc2c(c(=O)[nH]1)CCCC2)c1ccccc1 -13.5%
CCOc1ccccc1NC(=O)C1CCN(S(=O)(=O)c2ccccc2)CC1 -27.7%
CCOc1ccc(S(=O)(=O)N2CCN(c3c(C)cccc3C)CC2)c2ccccc12 -20.1%
Cc1cc(C)cc(OC(=O)c2snnc2C)c1 -21.9%
COc1cc(NC(=O)Cn2ncc3c([nH]c4ccc(C)cc43)c2=O)cc(OC)c1OC -2.54%
COc1cc(Cl)c(C)cc1NC(=O)CSc1ncc(S(=O)(=O)c2ccc(C(C)(C)C)cc2)c(=O)[nH]1 -4.08%
COc1ccc(NC(=O)CSc2nnc(-c3cccs3)o2)cc1 61.5%
CCOc1ccccc1Nc1cc(-c2ccccc2)nc(C)n1 -15.6%
CC(C)(Oc1ccc(C2CC2(Cl)Cl)cc1)C(=O)O (configuration not stated)
CC(C)CCN(Cc1ccco1)C(=O)c1cc2c(Cl)nc3ccccc3c2s1 4.04%
Cc1ccc(S(=O)(=O)CC(=O)Nc2sc3c(c2C#N)CCCCC3)cc1 -13%
COc1ccc(-c2noc(CSCC(=O)Nc3cccc(C(F)(F)F)c3)n2)cc1OC -13.1%
CCCOc1ccc(-c2nn(-c3ccccc3)cc2C2NC(=O)NC(C)=C2C(=O)OC)cc1C (configuration not stated) -9.61%
CCOc1ccccc1NC(=O)Nc1nnc(N2CCCCCC2)s1 -8.92%
CCC(=O)N1CCc2cc(Br)cc(S(=O)(=O)CCC(=O)NCCc3ccc(Cl)cc3)c21 -14.3%
COc1ccccc1N1CCN(CC(O)COc2cc(C)cc(C)c2)CC1 (configuration not stated) -26.5%
COc1cccc(CNC(=O)CCCN2C(=O)CSc3c2c(C)nn3-c2ccccc2)c1 -23.1%
NC(=O)[C@@H](CCC(F)(F)F)N(Cc1ccc(-c2ncon2)cc1F)S(=O)(=O)c1ccc(Cl)cc1 -26.7%
O=c1c2ccccc2n(Cc2cccc(F)c2)c(=O)n1Cc1ccccc1Cl -33.5%
COc1ccc(-c2ccc3c(N)c(C(=O)Nc4cc(F)ccc4C)sc3n2)cc1 -21.5%
Cc1cccc(Nc2c3c(nc4nncn24)CCC3)c1 -15.4%
CCn1cc(C(=O)N2CCN(c3cc(C)ccc3C)CC2)c(=O)c2cc(S(=O)(=O)N(C)C3CCCCC3)ccc21 -8.58%
Cc1ccc(-c2cc(C(=O)NCCc3ccccc3)c3c(-c4ccc(C)cc4)[nH]nc3n2)cc1 67.4%
Cc1ccc(NC(=O)CSc2nc3c([nH]c4ccccc43)c(=O)n2-c2ccccc2)c(C)c1 -11.7%
CCCCN1CCc2nc(N3CCN(c4ncccn4)CC3)ncc2C1 -10.8%
CCN(c1ccccc1)S(=O)(=O)c1ccc(NC(=O)c2cc(=O)c3cc(C)c(C)cc3o2)cc1 -24.5%
Cc1cccc(NS(=O)(=O)c2ccc3c(c2)CCN3C(=O)CCC(=O)O)c1C 5.72%
COc1cccc(-n2cc(C(=O)NCc3cccc(Cl)c3)c3ccccc3c2=O)c1 -22.7%
COc1ccc(S(=O)(=O)Nc2cc3c(cc2NCc2ccccc2)n(C)c(=O)n3C)cc1OC 129%
COc1ccccc1N1CCN(C(=O)Cn2c(=O)nc(-c3ccccc3)c3cc(Cl)ccc32)CC1 0.411%
CCOc1ccc(NC(=O)c2ccc(-c3ccccc3)s2)cc1 0.0802%
Cc1ccc2c(=O)cc(CSc3nnc(-c4ccccc4)n3C)[nH]c2c1C -2.15%
CC(C)c1ccc(S(=O)(=O)Nc2ccc3oc4c(c3c2)C(=O)CC(C)(C)C4)cc1 -17.3%
Cc1cc(C)c(NC(=O)c2cc3c(=O)n4ccccc4nc3n2C)c(C)c1 -17.3%
Cc1cc(-c2nc3ncccc3o2)ccc1NC(=O)c1ccc(Br)cc1 -9.22%
CCOC(=O)Cn1c(=O)n(C2CCCCC2)c2nc(-c3ccc(Cl)cc3)nc(C(N)=O)c21 6.51%
Cc1c(Cl)cccc1NC(=O)c1ccc(C(=O)Nc2cccc(Cl)c2C)cc1 2.37%
CC1CCN(C(=O)c2cnn(-c3cccc(Cl)c3)c2C2CCN(C(=O)OC(C)(C)C)CC2)CC1 0.708%
COc1cc(OC)cc(-n2nnc(-c3nc(-c4ccccc4Cl)no3)c2N)c1 -4.57%
CC(=O)N1CCc2c(sc3c2c(=O)n(-c2ccccc2C)c(=O)n3Cc2cccc(F)c2)C1 -28.5%
C[C@@H](O)[C@H]1C(=O)N2C(C(=O)O)=C(SCCN=CN)C[C@H]12 5.41%
COc1ccc(OCC(=O)NCC(c2ccc(Cl)cc2)N2CCCCC2)cc1 (configuration not stated) -12.7%
CC(=O)N1c2ccccc2C(=O)C1N1CCN(c2ccccc2)CC1 (configuration not stated) -18.2%
CSc1ccc(CNC(=O)c2ccccc2NC(=O)c2nsc3ccccc23)cc1 16.7%
COc1ccc(NC(=O)c2c(-c3ccccc3)c(-c3ccccc3)nn(C)c2=O)c(OC)c1 -12.4%
Cc1ccccc1Nc1c(-c2ccc(N3CCOCC3)cc2)nc2ncccn12 8%
Cc1c(CNC(C)CCc2ccccc2)c(C(=O)O)c(C)n1Cc1ccc(F)cc1Cl (configuration not stated) -22.3%
CC1=C(C(=O)O)N2C(=O)[C@@H](NC(=O)[C@H](N)c3ccc(O)cc3)[C@H]2SC1 -0.568%
O=C(Nc1ccccc1-c1nc2ccccc2s1)c1cc(Cl)cc(Cl)c1 -12%
O=C(c1ccccc1Cl)n1nc(-c2cccnc2)nc1NCc1ccc(F)cc1 -16.7%
COC(=O)c1scc(-c2ccccc2)c1S(=O)(=O)Nc1cccc(C)c1C -22.7%
COc1ccc(N2CCN(C3=NS(=O)(=O)C(c4cccc(Br)c4)=C3C)CC2)cc1 -16%
Cc1cc(C)c(NC(=O)CCc2c(C)nc3c(c(C)nn3C(C)(C)C)c2C)c(C)c1 -8.99%
CCOC(=O)c1ccc(NC(=O)CCc2c(C)nc3nc[nH]n3c2=O)cc1 2.33%
COc1ccc(C2=NN(CC(=O)NCCCN(C)c3ccccc3)C(=O)CC2)cc1 -9.68%
COC(=O)c1cc2sc(C)cc2n1Cc1ccc(Br)cc1F -18.2%
COCCNC(=O)C(=O)NCC(c1cccnc1)N1CCN(c2ccccc2F)CC1 (configuration not stated) -19.6%
Cc1ccc2oc3c(c(=O)c2c1)C(c1ccc(F)cc1)N(c1nc(C)c(C)s1)C3=O (configuration not stated) 0.148%
COc1ccc(C2CC(=O)Nc3c2c(=O)[nH]c2nc4ccccc4n32)cc1OC (configuration not stated) -11.2%
COc1ccccc1Nc1nc2ccc(Cl)cc2nc1-n1nc(C)cc1C 12.7%
COc1ccc(NC(=O)c2nc3nc(C)cc(C(F)F)n3n2)c(C)c1 12.3%
COc1ccc(C=Cc2cc(OC)c(OC)c(OC)c2)cc1O -26.8%
CCOC(=O)c1cccc(NC(=O)C2CCN(S(=O)(=O)c3cn(C)cn3)CC2)c1 -12.8%
Cc1ccc(C)c(NS(=O)(=O)c2cc3c(cc2Cl)NC(=O)CO3)c1 -29.6%
CCc1ccc(NC(=O)N2CC(C)Oc3ccc(C)cc32)cc1 (configuration not stated) -1.68%
CC(C)(C)OC(=O)N1CCC(c2c(C(=O)NCCN3CCC(Cc4ccccc4)CC3)cnn2-c2ccccc2)CC1 -17.4%
COc1cc2ccccc2cc1C(=O)Nc1ccc2oc(-c3cccc(Cl)c3Cl)nc2c1 8.6%
COc1ccc(-n2cc(-c3ccccc3)nc2SCC(=O)Nc2ccccc2)cc1Cl -23.4%
CCCn1c(NCc2ccccc2C)nc2ccccc21 17.4%
CCc1ccc(S(=O)(=O)c2nnn3c2nc(N2CCCC2)c2sccc23)cc1 -5.52%
Cc1ccccc1C1C=C(c2ccc(Cl)cc2)Nc2nnnn21 (configuration not stated) -28.5%
COc1ccc(NC(=O)COCc2cc(-c3cccs3)on2)cc1 -1.86%
CN1C(=O)Cc2cc(S(=O)(=O)CCC(=O)N3CCN(c4ccccc4F)CC3)ccc21 -17.4%
COc1ccc(-c2cc(C(F)(F)F)n3nc(C(=O)Nc4cccc(Cl)c4C)cc3n2)cc1 -22.5% [at 11.5 µM]
